# Assay results taken from PubChem BioAssay AID2546 (National Center for Advancing Translational Sciences (NCATS), 2010).
# Several values for one entry are separate records, joined by “and”; a condition that tells them apart may be missing. Equal values may be shown once. About 11,000 (3.5%) of roughly 310,000 compounds were called active. This list was built around the results that the source calls inconclusive (neither active nor inactive); the mix of calls is not that of the screen. Calls come from the whole dose curve; as a rule, active = well fitted inhibition curve with a large enough effect; inconclusive = small, poorly fitted or top-dose-only effect, or effect the other way; inactive = flat fitted curve, though single readings scatter. No potency is given beside an inconclusive call; the fits are too rough.
# Assay: VP16 counterscreen qHTS for inhibitors of ROR gamma transcriptional activity;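 note: Gal4-VP16 expression switched on by copper sulfate through the metallothionein promoter; nearly all actives have a fitted effect of over 50% in size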
# Details: Drosophila S2 Gal4-VP16 UAS-luciferase, luminescence, 20 h; series mostly up to 53.6 µM
# Potency is the fitted concentration of half-maximal effect; tags give direction and shape of the fitted curve.
row,Structure (SMILES),Potency
1,Cc1ccccc1CSc1nnc(-c2ccccn2)n1C,inactive
2,Cc1cccc(N2C(=O)CC(Sc3nccc(C)n3)C2=O)c1 (stereo not given),"inconclusive [inhibitor, single point]"
3,Fc1ccccc1/C=N/Nc1nc2ccccc2o1,active: 11.2 µM
4,O=c1c(Cl)cc(Cl)nn1-c1ccccc1,"inconclusive [inhibitor, single point]"
5,O=c1cnc2cnc(OCc3ccccc3)nc2n1Cc1ccc(F)cc1,inactive
6,COc1ccc(-c2c(C)[nH]n3c(=O)c(Cc4ccccc4)c(C)nc23)cc1,active: 3.16 µM
7,Cc1ccc2c(c1)N(CCC(=O)NCc1cccs1)C(=O)C(C)O2 (stereo not given),"inconclusive [inhibitor, single point]"
8,CCCc1nnc(SCC(=O)Nc2nc(C)cs2)n1CCOC,inactive
9,O=C(Cn1nc(-c2ccccc2)ccc1=O)Nc1ccc(NC(=O)c2ccccn2)cc1,"inconclusive [activator, single point]"
10,CCOc1cc(CNCc2ccncc2)cc(Br)c1OCc1ccccc1F,"inconclusive [inhibitor, single point]"
11,O=C(OCc1cccc([N+](=O)[O-])c1)c1ccc[nH]c1=O,inactive
12,O=C1[C@@H]2C(c3cccnc3)=NO[C@@H]2C(=O)N1c1ccc2ccccc2c1,inactive
13,Cc1cccc(C)c1OCC(=O)Nc1ccncc1,inactive
14,Clc1ccc2nc(-c3ccc(Br)s3)cn2c1,"inconclusive [inhibitor, partial curve]"
15,C=CCc1c(C)nc2cc(-c3ccc(C)cc3)[nH]n2c1=O,"inconclusive [inhibitor, single point]"
16,Cc1ccccc1Cn1c(O)c(N=NC(=S)Nc2ccccc2F)c2ccccc21,"inconclusive [inhibitor, single point]"
17,O=C(CCl)Nc1cccn2ncnc12,"inconclusive [inhibitor, single point]"
18,Cc1ccc(-n2nnnc2SCC(=O)Nc2cc(C)on2)c(C)c1,inactive
19,Cc1ccc(C(=O)N/N=C\c2cccn2C)cn1,"inconclusive [inhibitor, single point]"
20,Cc1ccc(NC(=O)N/C=C/c2ccc(Cl)cc2)cc1,"inconclusive [inhibitor, single point]"
21,Cc1cc(-c2ccco2)c(C#N)c2nc3ccccc3n12,"inconclusive [inhibitor, single point]"
22,O=C1C(=O)c2ccccc2C(O)=C1C1CCC(c2ccc(Cl)cc2)CC1 (stereo not given),active: 2.24 µM and active: 5.01 µM
23,CC(NC(=O)c1ccc(OC2CCN(S(=O)(=O)N(C)C)CC2)cc1)C1CC1 (stereo not given),inactive
24,c1ccc(-c2nc(N3CCCCCC3)c3ccccc3n2)nc1,active: 2.51 µM
25,CCC(C)c1ccccc1NC(=O)CN1CCN(C/C=C/c2ccccc2)CC1 (stereo not given),inactive

row,Structure (SMILES),Potency
1,Cc1nn(-c2ccccc2)c(/N=C/c2ccc(O)cc2)c1-c1ccccc1,"inconclusive [activator, single point]"
2,O=C(Nc1cccc(-c2cnc3ccccc3n2)c1)c1ccccc1,"inconclusive [inhibitor, single point]"
3,COC(=O)CN1C(=O)C2(C(C#N)=C(N)Oc3c2c(C)nn3-c2ccccc2)c2ccccc21 (stereo not given),"inconclusive [inhibitor, single point]"
4,CN(C)CCCN(C(=O)c1cc2ccccc2oc1=O)c1nc2c(F)cccc2s1,inactive
5,COc1ccc(OC)c(S(=O)(=O)N2CCC(C(=O)Nc3cccc(C(F)(F)F)c3)CC2)c1,"inconclusive [inhibitor, single point]"
6,Cc1ccc(Nc2nc(N)nc(CSc3nncn3C)n2)cc1,active: 11.2 µM
7,COc1ccc(C2=CC3=C(Br)C(=O)C(C)(OC(=O)c4ccco4)C(=O)C3=CO2)cc1 (stereo not given),inactive
8,Cc1cccc(COc2ccc(/C=N/NC(=O)c3nnn(-c4nonc4N)c3CN3CCCCC3)cc2)c1,"inconclusive [inhibitor, single point]"
9,Cc1ccc(C)c(C(=O)CN2C(=O)c3ccccc3C2=O)c1,inactive
10,O=C(CC1Sc2ncnn2C1=O)Nc1ccc(Br)cc1 (stereo not given),active: 25.1 µM
11,O=Cc1c(-[n+]2ccccc2)nc([O-])n1-c1ccccc1,inactive
12,COc1ccc(NC(=S)N2CCN(Cc3ccc(C)cc3)CC2)cc1,inactive
13,CCCn1c(=O)c(C(=O)NCCc2ccc(OC)c(OC)c2)c(O)c2ccccc21,"inconclusive [inhibitor, single point]"
14,CC(C)(C)Nc1nc(-c2ccccn2)nc2ccccc12,active: 3.98 µM
15,CCCCc1cc(=O)oc2cc(OC(C)C(=O)NCC3CCC(C(=O)O)CC3)c(Cl)cc12 (stereo not given),inactive
16,Cc1ccc(-n2nnnc2-c2cnoc2-c2cccc(F)c2)cc1,"inconclusive [inhibitor, single point]"
17,Cc1c(/C=N/NC(=O)c2ccc(Br)o2)cnn1C,"inconclusive [activator, single point]"
18,O=[N+]([O-])c1ccc2nc(-c3ccc(Cl)cc3)[nH]c2c1,"inconclusive [inhibitor, single point]"
19,O=C(/C=C/c1ccc(Br)cc1)N1CCN(c2cccc(C(F)(F)F)c2)CC1,"inconclusive [inhibitor, single point]"
20,O=C(O)CCCCc1nc2ccccc2s1,"inconclusive [inhibitor, partial curve]"
21,CC(C)N=C(NC#N)SCc1ccc(Br)cc1,"inconclusive [inhibitor, single point]"
22,COc1cccc(Oc2cn[nH]c2-c2ccc(O)cc2O)c1,"inconclusive [inhibitor, single point]"
23,CCCOc1ccc(/C=N/Nc2ccccn2)cc1OC,inactive
24,Cc1ccc(-n2c(-c3ccc(Cl)cc3)n[nH]c2=S)cc1,active: 2.51 µM
25,CCOc1ccccc1C1C(C#N)=C(N)Oc2n[nH]c(CC)c21 (stereo not given),inactive
